Data as given in the supplement of paper PMC3334620.
Over roughly 33,000 sequences, “E-score (-0.5 to 0.5)” has its median near -0.053; the highest 2% begin near 0.37. Some of the results follow.

These sequences were tested against Hap1 (UniProt P0CE41) (assay: PBM E-score (8-mer binding enrichment) (E-score (-0.5 to 0.5)); higher = stronger / more preferred TF binding; most listed sequences are background and not binding sites). Conditions: protein concentration: 200 nM; construct: GST-DNA-binding domain.
Outline: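 Universal all-10-mer Agilent arrays, fresh or stripped once, were converted to double-stranded form by primer extension. GST-tagged yeast transcription factors from PURExpress in vitro transcription/translation, full-length or DNA-binding domain only, were applied at about 100-200 nM and detected with fluorescent anti-GST. After masliner normalisation, the Universal PBM Analysis Suite scored each ungapped eight-base word together with its reverse complement by E-score.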

UniProt P0CE41, sequence (P0CE41 whole entry, the tested form may be a part): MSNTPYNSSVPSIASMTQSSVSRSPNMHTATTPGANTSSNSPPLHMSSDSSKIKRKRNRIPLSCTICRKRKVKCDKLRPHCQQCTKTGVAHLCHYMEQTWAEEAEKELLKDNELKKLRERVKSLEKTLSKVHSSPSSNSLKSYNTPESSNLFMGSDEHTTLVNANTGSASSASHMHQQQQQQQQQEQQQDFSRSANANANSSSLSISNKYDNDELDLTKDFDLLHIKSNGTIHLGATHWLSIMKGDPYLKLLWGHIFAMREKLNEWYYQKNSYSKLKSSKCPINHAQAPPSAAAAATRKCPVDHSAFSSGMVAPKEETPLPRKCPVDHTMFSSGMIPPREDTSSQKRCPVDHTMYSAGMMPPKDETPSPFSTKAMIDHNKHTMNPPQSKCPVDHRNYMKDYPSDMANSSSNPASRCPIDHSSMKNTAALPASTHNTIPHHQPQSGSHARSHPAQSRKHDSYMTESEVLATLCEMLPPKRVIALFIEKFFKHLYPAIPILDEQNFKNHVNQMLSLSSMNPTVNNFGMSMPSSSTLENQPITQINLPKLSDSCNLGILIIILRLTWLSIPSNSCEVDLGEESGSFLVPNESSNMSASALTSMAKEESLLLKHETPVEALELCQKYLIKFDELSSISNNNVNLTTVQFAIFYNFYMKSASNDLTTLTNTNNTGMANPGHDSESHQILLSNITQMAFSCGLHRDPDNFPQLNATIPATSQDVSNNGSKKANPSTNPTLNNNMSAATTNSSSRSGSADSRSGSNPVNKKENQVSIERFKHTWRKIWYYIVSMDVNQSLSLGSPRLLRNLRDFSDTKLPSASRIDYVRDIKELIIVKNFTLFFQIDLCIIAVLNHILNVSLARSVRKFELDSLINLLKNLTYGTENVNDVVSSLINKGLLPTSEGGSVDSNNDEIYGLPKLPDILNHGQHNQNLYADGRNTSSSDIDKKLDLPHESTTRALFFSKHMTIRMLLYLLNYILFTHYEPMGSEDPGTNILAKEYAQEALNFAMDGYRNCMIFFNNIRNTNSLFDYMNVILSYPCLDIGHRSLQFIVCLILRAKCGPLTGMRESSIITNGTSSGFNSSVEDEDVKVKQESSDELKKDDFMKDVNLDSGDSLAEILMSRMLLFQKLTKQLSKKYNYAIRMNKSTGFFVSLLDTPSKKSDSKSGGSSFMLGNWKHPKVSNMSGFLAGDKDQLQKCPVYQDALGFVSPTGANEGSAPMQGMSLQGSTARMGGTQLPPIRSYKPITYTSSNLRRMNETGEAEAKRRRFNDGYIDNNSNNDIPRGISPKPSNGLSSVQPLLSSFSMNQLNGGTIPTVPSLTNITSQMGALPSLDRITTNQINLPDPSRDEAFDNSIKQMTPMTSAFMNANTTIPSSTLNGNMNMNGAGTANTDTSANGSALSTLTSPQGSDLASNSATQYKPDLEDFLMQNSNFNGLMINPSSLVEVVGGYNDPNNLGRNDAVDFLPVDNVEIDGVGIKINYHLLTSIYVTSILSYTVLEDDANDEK

Row | Sequence | PBM E-score
1 | AAGCGCGG | 0.0839
2 | ATGAGGAA | -0.0925
3 | CCAAGCGA | -0.203
4 | CCCGACAC | 0.177
5 | CAAGTTGG | -0.0661
6 | ATCCCATA | 0.0312
7 | AGTCACAA | -0.27
8 | ATACTGCG | -0.0218
9 | CATGGTCC | -0.0533
10 | AGTGCATA | -0.132
11 | ATCTCCCC | 0.0474
12 | ACAAATTA | -0.0249
13 | ATGGGTCA | -0.27
14 | TGACACAA | -0.188
15 | AATGTGTC | -0.0789
16 | CCATCCCA | -0.117
17 | CGTTCTCA | -0.226
18 | CCCTTAGA | -0.259
19 | CAACCATC | 0.00672
20 | GGTTCGAC | -0.0219
21 | ACTACGCA | -0.0826
22 | CAGAGAGC | -0.17
23 | AACGGGCC | 0.127
24 | AGAATTAC | 0.0991
25 | GCTAGAAA | 0.00369

Row | Sequence | PBM E-score
26 | GAATGTCA | -0.149
27 | CTCACACA | -0.0699
28 | CCAGACCA | -0.187
29 | CAACTGGA | -0.109
30 | GATGCGCC | 0.04
31 | AAGAATTG | 0.06
32 | TGAGCCAA | -0.233
33 | GACACACC | 0.0233
34 | CTATGCAC | -0.253
35 | ATGGGAGC | -0.0627
36 | TAGCCATA | -0.25
37 | ACGCTAGC | -0.212
38 | AATAGAGA | -0.18
39 | GCATAGAA | -0.00949
40 | CATCCCCA | -0.184
41 | CAAGCGAG | 0.0412
42 | ACGAACGG | 0.236
43 | GTGGAGTA | -0.107
44 | ACGTCTCG | 0.0586
45 | CATTAATA | 0.00311
46 | AACCGTGG | 0.0649
47 | ACCCAGTA | -0.253
48 | CCGCGCGC | 0.24
49 | CTGCTGCC | -0.142
50 | GGTAGACA | 0.0417

Row | Sequence | PBM E-score
51 | ATCTCTTA | 0.015
52 | AGAGTCCC | -0.0345
53 | ATGTGCAC | -0.108
54 | AAGCAGCT | -0.114
55 | AAAGAGTC | -0.116
56 | AAGTGTCT | -0.0964
57 | ATTTACAG | -0.156
58 | ACAGATTC | 0.0309
59 | GCACCGCA | 0.00539
60 | TGTCGACA | -0.321
61 | AGGTGAAG | -0.184
62 | GTACATAA | 0.0421
63 | GCCGCCCC | 0.175
64 | ACCGCCAC | -0.151
65 | ATCGGCAA | 0.345
66 | ACTGCAGC | -0.0459
67 | AAGGAATT | -0.00572
68 | CATCAGCC | -0.173
69 | GATCAAGA | 0.0997
70 | CACCGAGG | 0.29
71 | AATGAAAC | -0.12
72 | AACGCGGG | 0.267
73 | AAACTCGG | 0.323
74 | ACCTCCTG | -0.266
75 | ACCCTGGG | -0.0738

Row | Sequence | PBM E-score
76 | AGACGCCA | -0.236
77 | GCGATCCA | -0.0248
78 | TACCTTCA | -0.199
79 | AGATATTA | 0.0205
80 | CCAGCCAG | -0.142
81 | CATGATCA | -0.182
82 | CCAGAGGC | -0.259
83 | CTGCATTA | -0.0536
84 | TAAGAGTA | -0.124
85 | GGACTGGA | -0.0873
86 | AGGCTATA | -0.157
87 | ACCTGGGG | -0.232
88 | CCGCTTAA | 0.0901
89 | CGACGCCC | 0.277
90 | GGTTTATA | 0.174
91 | GATCGTCA | -0.0826
92 | AAGAGCAG | -0.144
93 | ACTCGGAT | 0.311
94 | AAGCTATG | -0.221
95 | TCGCTCCA | -0.0528
96 | GCACAACA | -0.169
97 | ACCACTGC | -0.234
98 | CCCCGCGG | 0.219
99 | AGGACGCA | -0.0629
100 | GGTCGCTA | 0.0101

Row | Sequence | PBM E-score
101 | ACAGCGTG | -0.137
102 | ACTTGGTG | -0.25
103 | CCGGTGTC | 0.301
104 | AGAGAACT | -0.168
105 | CAAGTCGA | -0.217
106 | AGCCCGAA | 0.3
107 | CGCACGAA | 0.0082
108 | GACTTCAA | -0.192
109 | AGCTCCAG | -0.125
110 | CCGCGATA | 0.297
111 | CATTTTAA | -0.0637
112 | GCACGAGA | -0.0065
113 | GCCGGTTA | 0.218
114 | CAATTAGA | -0.298
115 | CACGTGAC | -0.211
116 | CCATCGGC | 0.174
117 | CTCTTCAC | -0.157
118 | AATAATCA | -0.023
119 | CATCATGG | -0.13
120 | GCTTTTGA | 0.00454
121 | ATCTACGA | -0.201
122 | AAGTTATG | -0.163
123 | ACTGGGAA | -0.103
124 | GAAGTATC | 0.0616
125 | ACGTGAGT | -0.227

Row | Sequence | PBM E-score
126 | CAACCAGG | -0.164
127 | ACCTATAT | 0.114
128 | AGAGCACA | -0.203
129 | TACGACCA | -0.255
130 | CCGGTAGA | 0.359
131 | AATCGCTC | 0.0316
132 | CGCAAGAC | -0.117
133 | GCGGGATA | 0.2
134 | AGGAGACG | -0.218
135 | CCACACAG | -0.173
136 | GCCATATA | 0.00515
137 | ATACATAA | -0.108
138 | CCAATTCA | -0.247
139 | CTTAAGTA | -0.121
140 | GGTAAATA | 0.0374
141 | ACGGAGGG | 0.155
142 | CCTGTACA | -0.103
143 | AGTTACCA | 0.0113
144 | AGCATGGC | -0.139
145 | CATGTGCA | -0.253
146 | GCTAGACC | 0.0346
147 | GTTACGTA | -0.161
148 | CATAGAAA | -0.0951
149 | ATGCAGGA | -0.305
150 | AGCGATCC | 0.0456

Row | Sequence | PBM E-score
151 | GCTCTGGA | -0.0319
152 | AGCTCCCT | -0.25
153 | AACGATGT | -0.124
154 | CAGGCATG | -0.115
155 | CAGCGACG | -0.158
156 | CCAAAGAC | -0.0155
157 | ATCGCCAG | -0.0506
158 | ATAACCAG | -0.0985
159 | AAGCGTAG | -0.057
160 | AATGAGAT | -0.104
161 | TCCTCCGA | 0.308
162 | ATATCAGA | 0.126
163 | GTAGATAA | 0.102
164 | CGTGTTTC | 0.0655
165 | TCGCCGAA | 0.341
166 | TAAGTCCA | 0.138
167 | ACACAAGT | -0.25
168 | ATTCTCTA | -0.192
169 | CCAGATGC | -0.0813
170 | GACGCCCC | 0.132
171 | ACCGATAG | 0.373
172 | TACAAAGA | -0.0127
